Assay results from PMC4336329 (PLoS ONE, 2015).
Among all 310,000 compounds or so, about 14,000 (4.5%) showed an effect of 50% or more. Effects have a minus sign here. This is one part of the list.

These compounds were tested against human ether-à-go-go-related gene (hERG) potassium channel (human, UniProt Q12809) (assay: primary screen, population patch clamp on CHO cells stably expressing hERG).
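Further: peak tail current of the secondary pulse compared with the same well before compound.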

Chain of human ether-à-go-go-related gene (hERG) potassium channel (Q12809 whole entry, looked up): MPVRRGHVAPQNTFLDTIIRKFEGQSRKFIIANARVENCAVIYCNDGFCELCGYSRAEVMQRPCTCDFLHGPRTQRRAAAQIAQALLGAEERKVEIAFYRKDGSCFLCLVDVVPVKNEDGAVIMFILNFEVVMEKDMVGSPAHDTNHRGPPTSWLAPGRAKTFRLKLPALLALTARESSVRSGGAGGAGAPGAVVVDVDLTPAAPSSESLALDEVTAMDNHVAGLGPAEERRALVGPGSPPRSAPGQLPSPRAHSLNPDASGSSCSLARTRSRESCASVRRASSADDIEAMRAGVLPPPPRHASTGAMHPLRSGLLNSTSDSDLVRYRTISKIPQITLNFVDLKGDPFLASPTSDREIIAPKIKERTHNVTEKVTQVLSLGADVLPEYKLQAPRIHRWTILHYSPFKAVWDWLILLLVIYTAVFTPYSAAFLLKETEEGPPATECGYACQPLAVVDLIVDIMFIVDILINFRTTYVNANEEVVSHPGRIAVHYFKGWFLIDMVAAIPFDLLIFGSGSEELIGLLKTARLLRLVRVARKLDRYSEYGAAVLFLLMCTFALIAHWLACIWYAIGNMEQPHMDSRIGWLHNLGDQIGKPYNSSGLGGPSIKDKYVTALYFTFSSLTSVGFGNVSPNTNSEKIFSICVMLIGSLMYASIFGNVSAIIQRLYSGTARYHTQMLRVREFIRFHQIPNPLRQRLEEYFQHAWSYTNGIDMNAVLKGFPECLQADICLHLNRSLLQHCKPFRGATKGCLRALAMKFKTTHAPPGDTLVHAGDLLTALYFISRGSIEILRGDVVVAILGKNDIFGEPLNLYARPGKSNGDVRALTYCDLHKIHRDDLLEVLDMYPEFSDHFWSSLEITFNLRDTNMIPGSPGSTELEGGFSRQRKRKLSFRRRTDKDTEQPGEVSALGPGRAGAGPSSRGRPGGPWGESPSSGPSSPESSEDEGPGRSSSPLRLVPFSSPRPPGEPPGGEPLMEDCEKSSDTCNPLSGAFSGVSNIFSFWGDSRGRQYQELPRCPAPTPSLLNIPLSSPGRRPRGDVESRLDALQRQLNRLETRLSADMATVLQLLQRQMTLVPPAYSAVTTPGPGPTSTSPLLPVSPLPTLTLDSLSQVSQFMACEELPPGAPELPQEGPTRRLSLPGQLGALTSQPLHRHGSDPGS

| Compound | hERG current change (%, negative = inhibition) at 10uM [%] |
| --- | --- |
| CC1(C)CC(=O)C2=C(C1)N(Cc1ccccc1)C(=O)C2(O)C(F)(F)F (stereo not drawn) | -4.64 |
| CC(NC(=O)Cc1ccccc1)C1COc2ccccc2O1 (stereo not drawn) | 7.25 |
| COc1ccc([C@H]2CC(=O)C=C(c3ccc4c5c(cccc35)CC4)C2)cc1 | 16 |
| Cc1ccc(-n2nc3c(=O)n(CCCC(=O)NCc4cccc(F)c4)nc(C)c3c2C)cc1 | -21.7 |
| O=C(O)c1cc(NC(=O)C2CCCO2)cc(C(=O)O)c1 (stereo not drawn) | 29.6 |
| Cc1nc(Sc2ccc(Br)cc2)c(C#N)c(C)c1[N+](=O)[O-] | 20.1 |
| CSCC[C@H](NC(=O)C1CCC(CNC(=O)[C@@H](N)Cc2ccccc2)CC1)C(=O)O.Cl (stereo partly drawn) | -1.56 |
| CCCn1c(N)c(C(=O)CSc2nnc(-c3ccoc3C)n2C)c(=O)n(C)c1=O | -7.82 |
| CCc1ccc(OCC(=O)N2CCN(Cc3ccc4c(c3)OCO4)CC2)cc1 | -15.9 |
| N/C(=N\OC(=O)c1ccc2c(c1)OCO2)c1cccc([N+](=O)[O-])c1 | 8.13 |
| CCOc1ccc(-c2nnc(SCC(=O)N3CCN(c4ccccc4)CC3)o2)cc1 | 8.26 |
| CC(C)(C)C1(C)OC(C(N)=O)C(C(N)=O)O1 (stereo not drawn) | 15.3 |
| CC(=O)Nc1ccc(S(=O)(=O)Nc2ccc(C)c([N+](=O)[O-])c2)cc1 | -19.6 |
| Cc1cc2cc(CNC(=O)Cc3ccc([N+](=O)[O-])cc3)ccc2[nH]1 | -50.7 |
| Cc1ccc(S(=O)(=O)NCc2ccccc2)cc1C(=O)N(C)Cc1ccc(F)cc1 | 5.11 |
| COc1ccc(NC(=O)C2CCCN2C(=O)Nc2ccccc2)cc1OC (stereo not drawn) | 3.54 |
| N#Cc1nc(N2CCCC2)nc(N2CCCC2)n1 | -8.34 |
| CCOc1cc2[nH]c(=S)n(CCCN3CCOCC3)c(=O)c2cc1OCC | -18.5 |
| NS(=O)(=O)c1ccc(CCNC(=O)CN2CCC(Cc3ccccc3)CC2)cc1 | -34.1 |
| Cc1ccc(/C=C/C(=O)Nc2cccc(S(=O)(=O)N3CCOCC3)c2)o1 | -19.9 |
| COc1ccc(Cl)cc1C(=O)N(Cc1nc(-c2cccc(C)c2)no1)C(C)C | -14 |

| Compound | hERG current change (%, negative = inhibition) at 10uM [%] |
| --- | --- |
| O=C(COC(=O)CSc1cc(Cl)ccc1Cl)Nc1ncc(C(F)(F)F)cc1Cl | -0.654 |
| CCn1c(SCC(=O)N2CCCCC2)nnc1-c1ccc(S(=O)(=O)N2CCN(C)CC2)cc1 | -9 |
| COc1ccc(NC(=O)CN(C)Cc2cccs2)cc1Cl | -15.7 |
| CCN(CC(=O)NCc1ccc(Cl)cc1)C(=O)/C=C/c1cccs1 | -49.1 |
| O=C(CCc1nnc2ccc(NCc3ccccc3)nn12)N1CCC2(CC1)OCCO2 | 14.4 |
| CCc1ccc(NC(=O)c2cc3c(C)nc4ccccc4c3o2)cc1 | -8.43 |
| Cc1cccc(N2CCN(C(=O)c3nn(C)c4c3CS(=O)(=O)c3ccccc3-4)CC2)c1C | -33.4 |
| COc1ncccc1C(=O)NC1CCCc2c1cnn2-c1cc(C)cc(C)c1 (stereo not drawn) | -7.08 |
| COc1c(S(=O)(=O)n2nc(C)cc2C)ccc(Cl)c1Cl | -10.6 |
| CCOC(=O)c1cc(C)sc1NC(=O)CSC1=NCCS1 | -13.4 |
| O/N=C1\CC/C(=N\O)c2nn(-c3ccc(Cl)cc3Cl)nc21 | -2.2 |
| Nc1cc(=O)[nH]c(SCC(=O)Nc2cccc(Cl)c2Cl)n1 | 22.1 |
| Cc1ccc(-c2nnc(-c3ccc(NC(=O)Cc4cccs4)cc3)o2)cc1 | 0.386 |
| COc1ccc2oc(C(=O)NC3(C)CCS(=O)(=O)C3)c(C)c2c1 (stereo not drawn) | -1 |
| CCOC(=O)C1CCN(c2c(NCc3ccc(C(=O)NCCOC)cc3)c(=O)c2=O)CC1 | -7.38 |
| CC(C)(C)c1cc(=O)[nH]c(SCc2ccccc2)n1 | 17.3 |
| CCOC(=O)Cc1csc(NC(=O)Nc2ccc(Cl)cc2)n1 | 11.5 |
| C/C(=C\C(=O)c1ccccc1)NCc1ccc(F)cc1 | -22.7 |
| COc1cc(C(=O)Nc2ccccc2NC(=O)c2cc(OC)c(OC)c(OC)c2)cc(OC)c1OC | -4.27 |
| COc1ccc([C@@H]2[C@@H]3C(=O)N(C(C)(C)C)C(=O)[C@@H]3[C@]3(C)C(=O)N(c4cccc(Cl)c4)C(=O)N23)cc1 | 4.71 |
| COc1ccc(-c2nnc(Sc3nc4ccccc4o3)c3ccccc23)cc1 | -3.62 |
